Source: the supplement of paper PMC4967469
The IC50 comes from the fitted curve, where viability falls to half of the control; a limit (>, <) means that the fit lies beyond the doses tested. For AUC the same curve is integrated over the 256-fold range of doses and scaled to a fraction; the more sensitive the line, the further below 1. For part of these data: Where the top dose is marked as inferred, it comes from the curve model; the source does not state it. For part of these data: Where an entry number is given, a second screen of the drug exists; the two often differ.

Experiments:
Assay in all cases: Viability of human cancer cell lines after 72 h of drug (GDSC screen)
[1] = compound: CCNC(=O)c1noc(-c2cc(C(C)C)c(O)cc2O)c1-c1ccc(CN2CCOCC2)cc1 [AUY922]; settings: top dose 0.256 µM; top dose inferred
Experimental: (§1)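 Human cancer cell lines in 384-well plates, medium with 10% serum, drug for 72 h over a 256-fold dose range (nine 2-fold or five 4-fold steps up to the top dose). Adherent lines were fixed and stained with the nucleic acid dye Syto60, suspension lines read with resazurin; signal relative to control wells, capped at 0 and 100%. One two-parameter sigmoid per drug and line, fitted in a mixed model over all curves with the slope shared within a line.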

[2] = compound: Nc1ccn([C@@H]2O[C@H](CO)[C@@H](O)C2(F)F)c(=O)n1 [Gemcitabine]; settings: top dose 1.024 µM
Experimental: as §1

[3] = compound: O=S(=O)(c1ccccc1)N(CC(F)(F)F)c1ccc(C(O)(C(F)(F)F)C(F)(F)F)cc1 [T0901317]; settings: top dose 10.24 µM; top dose inferred
Experimental: as §1

[4] = compound: Cc1ccc(Nc2cc(-c3cccc(N4C(=O)c5ccccc5C4=O)c3)ncn2)cc1NS(C)(=O)=O [KIN001-270]; settings: top dose 20 µM; top dose inferred
Experimental: as §1

[5] = compound: NC(=O)c1cccc(-c2cc(Nc3ccc(OC(F)(F)F)cc3)ncn2)c1 [GNF-2]; settings: top dose 1.28 µM; top dose inferred
Experimental: as §1

[6] = compound: CC(O)(CS(=O)(=O)c1ccc(F)cc1)C(=O)Nc1ccc(C#N)c(C(F)(F)F)c1 [Bicalutamide]; settings: top dose inferred
Experimental: as §1

[7] = compound: S=C(NCc1ccc2c(c1)OCO2)N1CCN(c2ncnc3c2oc2ccccc23)CC1 [MP470]; settings: top dose 20 µM; top dose inferred
Experimental: as §1

[8] = compound: C/C(O)=C(\C#N)C(=O)Nc1cc(Br)ccc1Br [LFM-A13]; settings: top dose 16 µM; top dose inferred
Experimental: as §1

[9] = compound: Cc1cn(-c2cc(NC(=O)c3ccc(C)c(Nc4nccc(-c5cccnc5)n4)c3)cc(C(F)(F)F)c2)cn1 [Nilotinib]; settings: top dose 2 µM
Experimental: as §1

[10] = compound: CC(C)c1ccccc1Cc1cc(C(=O)Nc2ccc(S(=O)(=O)c3ccccc3C(C)(C)C)cc2)c(O)c(O)c1O [TW-37]; settings: top dose 5 µM
Experimental: as §1

[11] = top dose 1.024 µM, screen: GDSC drug entry 150
[12] = top dose 10 µM, screen: GDSC drug entry 1502

Row | Cell Line | AUC [1] | IC50 [1] [µM] | AUC [2] | IC50 [2] [µM] | AUC [3] | IC50 [3] [µM] | AUC [4] | IC50 [4] [µM] | AUC [5] | IC50 [5] [µM] | AUC [6, 11] | IC50 [6, 11] [µM] | AUC [6, 12] | IC50 [6, 12] [µM] | AUC [7] | IC50 [7] [µM] | AUC [8] | IC50 [8] [µM] | AUC [9] | IC50 [9] [µM] | AUC [10] | IC50 [10] [µM]
1 | TGBC1TKB (biliary tract, adherent) | 0.808 | 0.132 | 0.864 | 0.89 | 0.977 | > 10.2 | 0.972 | > 20 | 0.938 | > 1.28 | 0.987 | > 1.02 | 0.987 | > 10 | 0.97 | > 20 | 0.981 | > 16 | 0.982 | > 2 | 0.696 | 1.1
2 | SUP-HD1 (Hodgkin lymphoma, suspension) | 0.695 | 0.0549 | 0.421 | 0.0394 | 0.932 | > 10.2 | 0.903 | > 20 | 0.987 | > 1.28 | 0.986 | > 1.02 | 0.986 | > 10 | 0.955 | > 20 | 0.98 | > 16 | 0.979 | > 2 | 0.497 | 0.308
3 | A388 (skin, adherent) | 0.532 | 0.0199 | 0.187 | 0.00622 | 0.978 | > 10.2 | 0.949 | > 20 | 0.956 | > 1.28 | 0.982 | > 1.02 | 0.973 | > 10 | 0.952 | > 20 | 0.929 | > 16 | 0.978 | > 2 | 0.623 | 0.719
4 | SK-UT-1 (soft tissue, adherent) | 0.558 | 0.0227 | 0.028 | < 0.004 | 0.976 | > 10.2 | 0.985 | > 20 | 0.969 | > 1.28 | 0.989 | > 1.02 | 0.985 | > 10 | 0.987 | > 20 | 0.983 | > 16 | 0.974 | > 2 | 0.276 | 0.0774
5 | HC-1 (hairy cell leukaemia, suspension) | 0.57 | 0.0247 | 0.208 | 0.00925 | 0.969 | > 10.2 | 0.957 | > 20 | 0.987 | > 1.28 | 0.986 | > 1.02 | 0.982 | > 10 | 0.915 | > 20 | 0.979 | > 16 | 0.955 | > 2 | 0.846 | 3.42
6 | KE-37 (lymphoblastic leukaemia, suspension) | 0.403 | 0.00924 | 0.089 | 0.00491 | 0.931 | > 10.2 | 0.98 | > 20 | 0.994 | > 1.28 | 0.994 | > 1.02 | 0.991 | > 10 | 0.935 | > 20 | 0.966 | > 16 | 0.991 | > 2 | 0.504 | 0.32
7 | OCI-LY-19 (B-cell lymphoma, suspension) | 0.465 | 0.0129 | 0.091 | < 0.004 | 0.978 | > 10.2 | 0.9 | > 20 | 0.988 | > 1.28 | 0.987 | > 1.02 | 0.982 | > 10 | 0.568 | 1.89 | 0.932 | > 16 | 0.981 | > 2 | 0.411 | 0.182
8 | SF268 (glioma, adherent) | 0.651 | 0.0436 | 0.177 | 0.00613 | 0.982 | > 10.2 | 0.935 | > 20 | 0.985 | > 1.28 | 0.985 | > 1.02 | 0.944 | > 10 | 0.89 | > 20 | 0.978 | > 16 | 0.97 | > 2 | 0.483 | 0.279
9 | EW-11 (Ewing sarcoma, adherent) | 0.681 | 0.06 | 0.68 | 0.237 | 0.981 | > 10.2 | 0.959 | > 20 | 0.98 | > 1.28 | 0.974 | > 1.02 | 0.909 | > 10 | 0.964 | > 20 | 0.902 | > 16 | 0.961 | > 2 | 0.587 | 0.58
10 | JVM-2 (lymphoid neoplasm, suspension) | 0.866 | > 0.256 | 0.982 | > 1.02 | 0.946 | > 10.2 | 0.943 | > 20 | 0.982 | > 1.28 | 0.981 | > 1.02 | 0.971 | > 10 | 0.909 | > 20 | 0.973 | > 16 | 0.938 | > 2 | 0.574 | 0.523
11 | NCI-H345 (small cell lung carcinoma, suspension) | 0.988 | > 0.256 | 0.99 | > 1.02 | 0.99 | > 10.2 | 0.982 | > 20 | 0.973 | > 1.28 | 0.99 | > 1.02 | 0.987 | > 10 | 0.892 | > 20 | 0.99 | > 16 | 0.99 | > 2 | 0.758 | 1.82
12 | OCI-AML3 (acute myeloid leukaemia, suspension) | 0.743 | 0.0702 | 0.165 | 0.00753 | 0.949 | > 10.2 | 0.974 | > 20 | 0.991 | > 1.28 | 0.991 | > 1.02 | 0.99 | > 10 | 0.858 | 12.8 | 0.991 | > 16 | 0.987 | > 2 | 0.8 | 2.04
13 | SUP-B15 (lymphoblastic leukaemia, suspension) | 0.516 | 0.0176 | 0.123 | 0.00428 | 0.894 | > 10.2 | 0.951 | > 20 | 0.798 | 0.579 | 0.984 | > 1.02 |  |  | 0.714 | 4.89 | 0.963 | > 16 | 0.282 | 0.0312 | 0.532 | 0.381
14 | A253 (head and neck, adherent) | 0.637 | 0.0377 | 0.472 | 0.0538 | 0.97 | > 10.2 | 0.983 | > 20 | 0.989 | > 1.28 | 0.988 | > 1.02 | 0.985 | > 10 | 0.952 | > 20 | 0.934 | > 16 | 0.989 | > 2 | 0.48 | 0.277
15 | NCI-H187 (small cell lung carcinoma, suspension) | 0.968 | > 0.256 | 0.937 | > 1.02 | 0.985 | > 10.2 | 0.97 | > 20 | 0.967 | > 1.28 | 0.977 | > 1.02 | 0.983 | > 10 | 0.952 | > 20 | 0.988 | > 16 | 0.988 | > 2 | 0.615 | 0.667
16 | NKM-1 (acute myeloid leukaemia, suspension) | 0.343 | 0.00576 | 0.044 | < 0.004 | 0.884 | > 10.2 | 0.953 | > 20 | 0.977 | > 1.28 | 0.976 | > 1.02 | 0.969 | > 10 | 0.929 | > 20 | 0.969 | > 16 | 0.806 | 1.05 | 0.469 | 0.256
17 | OCUB-M (breast, adherent) | 0.559 | 0.0227 | 0.178 | 0.00825 | 0.939 | > 10.2 | 0.949 | > 20 | 0.982 | > 1.28 | 0.989 | > 1.02 | 0.971 | > 10 | 0.316 | 0.414 | 0.979 | > 16 | 0.977 | > 2 | 0.369 | 0.144
18 | A4-Fuk (B-cell lymphoma, suspension) | 0.497 | 0.0157 | 0.135 | 0.00422 | 0.968 | > 10.2 | 0.917 | > 20 | 0.985 | > 1.28 | 0.98 | > 1.02 | 0.975 | > 10 | 0.965 | > 20 | 0.891 | > 16 | 0.919 | > 2 | 0.508 | 0.329
19 | COR-L95 (small cell lung carcinoma, adherent) | 0.803 | 0.151 | 0.899 | > 1.02 | 0.987 | > 10.2 | 0.981 | > 20 | 0.986 | > 1.28 | 0.985 | > 1.02 | 0.985 | > 10 | 0.864 | > 20 | 0.982 | > 16 | 0.987 | > 2 | 0.829 | 3.81
20 | NCI-H82 (small cell lung carcinoma, suspension) | 0.988 | > 0.256 | 0.799 | 0.462 | 0.981 | > 10.2 | 0.981 | > 20 | 0.987 | > 1.28 | 0.987 | > 1.02 | 0.968 | > 10 | 0.492 | 1.19 | 0.983 | > 16 | 0.941 | > 2 | 0.545 | 0.411
